Measurements: patent US20240043542A1 (published 2024)

T1: cynomolgus monkey B7-H4 on the cell surface (cynomolgus monkey, UniProt Q7Z7D3 25-282 (human entry))
T1 construct: full-length, on transfected HEK293T cells
T1 chain: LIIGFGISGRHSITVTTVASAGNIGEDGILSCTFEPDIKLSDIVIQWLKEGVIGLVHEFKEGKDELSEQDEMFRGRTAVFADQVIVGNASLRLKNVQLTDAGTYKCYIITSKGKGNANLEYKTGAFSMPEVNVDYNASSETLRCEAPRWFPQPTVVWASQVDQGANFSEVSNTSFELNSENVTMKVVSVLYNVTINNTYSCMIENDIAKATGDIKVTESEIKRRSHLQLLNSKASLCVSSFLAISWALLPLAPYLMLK

T2: rat B7-H4 on the cell surface (rat, UniProt Q501W4 25-257)
T2 construct: full-length, on transfected HEK293T cells
T2 sequence: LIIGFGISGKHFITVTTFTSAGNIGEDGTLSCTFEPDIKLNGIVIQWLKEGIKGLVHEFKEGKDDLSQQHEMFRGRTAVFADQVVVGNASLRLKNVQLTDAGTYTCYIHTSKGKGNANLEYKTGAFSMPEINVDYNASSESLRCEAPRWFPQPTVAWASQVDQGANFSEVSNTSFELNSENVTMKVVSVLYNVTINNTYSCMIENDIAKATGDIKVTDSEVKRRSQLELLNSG

T3: mouse B7-H4 on the cell surface (mouse, UniProt Q7TSP5 25-257)
T3 construct: full-length, on transfected HEK293T cells
T3 sequence: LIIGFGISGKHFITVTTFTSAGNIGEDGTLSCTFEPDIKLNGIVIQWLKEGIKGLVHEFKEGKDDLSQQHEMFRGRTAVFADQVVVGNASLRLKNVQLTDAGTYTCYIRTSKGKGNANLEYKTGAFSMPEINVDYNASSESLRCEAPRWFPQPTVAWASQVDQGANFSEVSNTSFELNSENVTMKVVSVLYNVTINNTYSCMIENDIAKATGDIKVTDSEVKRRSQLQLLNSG

T4: human B7-H4 on the cell surface (human, UniProt Q7Z7D3 25-282)
T4 construct: full-length human B7-H4 on transfected HEK293T cells or endogenous on SK-BR-3 cells; also called SK-BR-3 (endogenous human B7-H4)
T4 sequence: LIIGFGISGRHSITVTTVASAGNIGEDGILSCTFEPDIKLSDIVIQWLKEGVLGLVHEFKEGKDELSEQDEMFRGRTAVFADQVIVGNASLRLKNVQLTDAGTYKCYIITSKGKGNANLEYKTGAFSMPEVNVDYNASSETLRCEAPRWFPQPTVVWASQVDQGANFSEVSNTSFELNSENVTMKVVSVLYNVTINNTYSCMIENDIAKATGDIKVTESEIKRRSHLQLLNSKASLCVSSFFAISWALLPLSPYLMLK


What was measured:
[1] = molecular target: T1, cynomolgus monkey B7-H4 on the cell …; test: flow cytometry, transfected 293 cells
[2] = molecular target: T2, rat B7-H4 on the cell surface; test: flow cytometry, transfected 293 cells
[3] = molecular target: T3, mouse B7-H4 on the cell surface; test: flow cytometry, transfected 293 cells
[4] = molecular target: T4, human B7-H4 on the cell surface; test: flow cytometry, SK-BR-3 cells
[5] = molecular target: T4, human B7-H4 on the cell surface; test: cell-based or functional assay
[6] = molecular target: T5, B7-H4 IgV-huIgG1 (human); test: SPR, protocol of Example 4
T5 construct: also called N-terminal domain of human B7-H4

[7] = molecular target: T4, human B7-H4 on the cell surface; test: cell-based or functional assay; remark: listed apart in the source

| EC50 [1] [nM] | EC50 [2] [nM] | EC50 [3] [nM] | EC50 [4] [nM] | ADCC Assay EC50 (SK-BR-3 target cells) [5] [nM] | Kd [6] [nM] | koff [6] [s⁻¹] | kon [6] [M⁻¹ s⁻¹] | aAPC Assay EC50 (IFNγ production) [7] [nM] | Binder |
| --- | --- | --- | --- | --- | --- | --- | --- | --- | --- |
| 2.92 | 2.45 | 1.66 | 0.483 | 0.0007 | 2.74 | 0.00115 | 419000 | 0.89 | B7-H4 antibody 20502, afucosylated (antibody, human IgG1, kappa, afucosylated Fc glycan (made in CHO-y cells), human IgG1/kappa; also called Ab-A) heavy: QLQLQESGPGLVKPSETLSLTCTVSGGSIKSGSYYWGWIRQPPGKGLEWIGNIYYSGSTYYNPSLRSRVTISVDTSKNQFSLKLSSVTAADTAVYYCAREGSYPNQFDPWGQGTLVTVSS[human IgG1 constant region omitted here] light: EIVMTQSPATLSVSPGERATLSCRASQSVSSNLAWYQQKPGQAPRLLIYGASTRATGIPARFSGSGSGTEFTLTISSLQSEDFAVYYCQQYHSFPFTFGGGTKVEIKRTVAAPSVFIFPPSDEQLKSGTASVVCLLNNFYPREAKVQWKVDNALQSGNSQESVTEQDSKDSTYSLSSTLTLSKADYEKHKVYACEVTHQGLSSPVTKSFNRGEC |
| 3.29 | 2.49 | 4.37 | 0.571 | 0.037 |  | 0.0011 | 428000 | 0.74 | B7-H4 antibody 20502, fucosylated (antibody, human IgG1, kappa, normally fucosylated Fc glycan (made in CHO-x cells), human IgG1/kappa; also called Ab-F) heavy: QLQLQESGPGLVKPSETLSLTCTVSGGSIKSGSYYWGWIRQPPGKGLEWIGNIYYSGSTYYNPSLRSRVTISVDTSKNQFSLKLSSVTAADTAVYYCAREGSYPNQFDPWGQGTLVTVSS[human IgG1 constant region omitted here] light: EIVMTQSPATLSVSPGERATLSCRASQSVSSNLAWYQQKPGQAPRLLIYGASTRATGIPARFSGSGSGTEFTLTISSLQSEDFAVYYCQQYHSFPFTFGGGTKVEIKRTVAAPSVFIFPPSDEQLKSGTASVVCLLNNFYPREAKVQWKVDNALQSGNSQESVTEQDSKDSTYSLSSTLTLSKADYEKHKVYACEVTHQGLSSPVTKSFNRGEC |
